Measured values as given in paper PMC4336329 (PLoS ONE, 2015).
Hit rate of the full screen: of about 310,000 compounds, about 2,200 (0.71%) showed an effect of 50% or more. The effect is printed as a negative number. The list shows a part of the results.

Target: human ether-à-go-go-related gene (hERG) potassium channel (human, UniProt Q12809)
Experiment: primary screen, population patch clamp on CHO cells stably expressing hERG

Sequence of human ether-à-go-go-related gene (hERG) potassium channel (Q12809 whole entry, looked up): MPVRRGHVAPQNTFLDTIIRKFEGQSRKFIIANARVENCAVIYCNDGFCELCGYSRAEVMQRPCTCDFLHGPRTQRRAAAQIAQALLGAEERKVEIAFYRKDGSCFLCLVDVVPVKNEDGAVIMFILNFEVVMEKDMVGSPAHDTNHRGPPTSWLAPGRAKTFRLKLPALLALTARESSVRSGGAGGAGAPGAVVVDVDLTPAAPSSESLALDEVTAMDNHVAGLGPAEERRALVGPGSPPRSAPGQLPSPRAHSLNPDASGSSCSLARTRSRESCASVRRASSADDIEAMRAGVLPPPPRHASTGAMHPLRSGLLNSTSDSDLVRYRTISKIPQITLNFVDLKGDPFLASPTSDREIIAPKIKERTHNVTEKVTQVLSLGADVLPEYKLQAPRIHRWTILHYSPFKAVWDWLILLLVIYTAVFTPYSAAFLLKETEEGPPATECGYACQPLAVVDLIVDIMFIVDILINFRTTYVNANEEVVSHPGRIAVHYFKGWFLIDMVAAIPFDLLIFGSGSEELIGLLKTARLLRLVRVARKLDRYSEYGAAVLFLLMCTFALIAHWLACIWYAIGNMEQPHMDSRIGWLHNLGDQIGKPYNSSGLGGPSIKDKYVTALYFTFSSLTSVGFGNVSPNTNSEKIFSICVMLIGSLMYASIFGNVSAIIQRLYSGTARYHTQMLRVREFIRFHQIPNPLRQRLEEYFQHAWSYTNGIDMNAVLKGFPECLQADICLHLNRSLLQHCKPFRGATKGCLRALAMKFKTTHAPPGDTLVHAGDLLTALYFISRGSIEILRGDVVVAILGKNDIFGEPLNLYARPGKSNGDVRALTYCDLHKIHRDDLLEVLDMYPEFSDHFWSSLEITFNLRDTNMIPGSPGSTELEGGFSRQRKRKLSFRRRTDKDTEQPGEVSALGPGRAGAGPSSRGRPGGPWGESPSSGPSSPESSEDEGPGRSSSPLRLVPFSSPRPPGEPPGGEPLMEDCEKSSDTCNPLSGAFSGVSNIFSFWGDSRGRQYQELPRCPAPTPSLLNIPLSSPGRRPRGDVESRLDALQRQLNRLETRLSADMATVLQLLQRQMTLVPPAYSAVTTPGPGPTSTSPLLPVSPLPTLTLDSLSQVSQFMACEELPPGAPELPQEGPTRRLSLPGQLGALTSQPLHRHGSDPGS

SMILES	hERG current change (%, negative = inhibition) at 1uM [%]
NC(=O)CC(NC(=O)Cc1ccc(Br)cc1)c1ccc(NC2CCC2)c([N+](=O)[O-])c1 (centres unmarked)	-2.11
COc1ccccc1/C=C/C(=O)OCC(=O)Nc1c(F)cccc1F	20.1
CC(=O)Nc1cccc(NC(=O)CSc2nnc3ccc(-c4ccccn4)nn23)c1	17.9
COc1ccc([C@@H]2[C@@H]3C(=O)N(C(C)(C)C)C(=O)[C@@H]3[C@]3(Cc4ccc(Cl)cc4)C(=O)N(c4ccc(Br)cc4)C(=O)N23)cc1	1.72
Cc1cc(C)c(NC(=O)CS(=O)CC(=O)NCCCc2ccccc2)c(C)c1 (centres unmarked)	5.98
COc1ccc(C(=O)Nc2nnc(S(=O)(=O)N(C)Cc3ccc(F)cc3)s2)cc1OC	11.1
O=C(CCN1C(=O)C2C3C=CC(C3)C2C1=O)Nc1ccc2c(c1)OCO2 (centres unmarked)	10.4
Cc1ccccc1C(=O)Nc1ccc(Br)cn1	17.3
Cc1cc(C)cc(OCC(=O)OCC(=O)Nc2ccc(Cl)cn2)c1	6.82
CC(C)(C)c1ccc(NC(=O)c2ccsc2)cc1	12.6
COc1ccnc(CSC(N)=Nc2ccc(F)cc2)c1.Cl	-4.25
CCn1ncc(NC(=S)NCCc2ccccc2)c1C(N)=O	2.4
COc1ccc(OCC(=O)N2CCN(C/C=C/c3ccccc3)CC2)cc1	-33.6
O=C1CC(c2ccc(F)cc2)Sc2nc(-c3ccccc3)c(-c3ccccc3)n21 (centres unmarked)	5.79
CC1CNCCN1S(=O)(=O)c1cccc2cnccc12 (centres unmarked)	11.5
CCOC(=O)N1CCN(CC(O)COc2cc(C)ccc2C(C)C)CC1.Cl (centres unmarked)	0.636
O=C(c1cc2ccccc2cc1O)N1CCN(c2cccc(Cl)c2)CC1	11.9
COc1ccccc1NS(=O)(=O)c1cccc(C(=O)N/N=C/c2ccc(C)o2)c1	10
CCOC(=O)CN1CCC(c2ccccc2)CC1	13.2
CC(C)NCC(O)c1ccc(NS(C)(=O)=O)cc1.Cl (centres unmarked)	30.7
COc1cccc(C(=O)N2CCN(C(=O)c3cccs3)CC2)c1OC	4.18
Cc1nn(C)cc1CN1CCC(n2nccc2NC(=O)CCCc2ccccc2)CC1	3.86
C(=C\c1ccccc1)/CSc1nnc(-c2ccccn2)n1Cc1ccco1	-3.84
Oc1ccc2ccccc2c1/C=N/Nc1ccccc1	14.9

SMILES	hERG current change (%, negative = inhibition) at 1uM [%]
CCS(=O)(=O)N1Cc2ccccc2CC1C(=O)NCc1cccc(OC)c1 (centres unmarked)	8.84
CC(NC(=O)C(=O)NN=C1CCCCCCC1)c1ccccc1 (centres unmarked)	8.8
O=Cc1ccc2ccc3cccnc3c2n1	7.93
Cc1ccc(S(=O)(=O)N2CCN(C(=O)COC(=O)CCOc3ccccc3)CC2)c(C)c1	10.6
COc1ccc(C(=O)NNS(=O)(=O)c2ccccc2)cc1	6.72
O=C(NC1CCCc2ccccc21)C12CC3CC(CC(O)(C3)C1)C2 (centres unmarked)	14.6
CCOC(=O)c1cc(CC)sc1N	13.8
Cc1ccc(N=C2NC(=O)C(CC(=O)O)S2)cc1 (centres unmarked)	8.56
O=C1COc2ccc3ccccc3c21	11.5
O=C(CSCc1ccco1)N1CCc2ccccc21	5.34
Cc1nnc(SCC(=O)N2CCN(S(=O)(=O)c3ccccc3)CC2)[nH]c1=O	13
CC1(C)Cc2nc3sc4c(=O)[nH]cnc4c3cc2CS1	14
CNC(=O)CCc1ccc(OC)cc1	12.2
Cc1cccc(CC(=O)N2CCOCC2)c1	17.2
COc1ccccc1-n1cn[nH]c1=S	12.7
CCc1ccc2c(COn3nnc4ccc(S(=O)(=O)N(C)C)cc43)cc(=O)oc2c1	2.18
CC(Oc1ccccc1)C(=O)Nc1nnc(C2CCCCC2)s1 (centres unmarked)	-3.72
COc1cccc(/C=N/NC(=O)C[n+]2ccccc2)c1O.[Cl-]	10.2
CCCCCCOC(=O)CCc1c(C)nc(N)[nH]c1=O	9.83
COc1ccc(NC(=O)COC(=O)CNS(=O)(=O)c2ccc(F)c(F)c2F)cc1OC	19.1
CC1(C)CC(NC(=O)CC2CCCCC2)CC(C)(C)N1	11.6
COc1ccc(-c2noc(C3CCCN(C(=O)c4ccc(C)cc4)C3)n2)cc1 (centres unmarked)	0.795
O=C(c1cc(S(=O)(=O)N2CCCCC2)ccc1F)N1CCCCC1	-0.367
C=CCn1c(N)c(S(=O)(=O)c2cccs2)c2nc3ccccc3nc21	9.64

SMILES	hERG current change (%, negative = inhibition) at 1uM [%]
c1cncc(-c2cccnc2)c1	17.3
Cc1ccsc1C(=O)Nc1n[nH]c(C(F)(F)F)n1	7.63
Cc1ccc(C(=O)OCC(=O)Nc2cc(C(C)(C)C)no2)c(C)c1	9.54
COC(=O)c1ccccc1NC(=O)N1CCN(c2ccc(F)cc2)CC1	6.07
COc1cccc(C2CC(c3ccccc3Cl)n3nc(N)nc3N2)c1 (centres unmarked)	4.93
COc1cc(/C=N/NC(=O)c2cnccn2)ccc1O	5.14
COc1cc(C=O)cc(Cl)c1OC(=O)N1CCOCC1	21.2
COc1cc(OC)c(S(=O)(=O)Nc2ccccc2N2CCOCC2)cc1NC(C)=O	10.7
CCOC(=O)Cc1c(C)nc2c(-c3ccccc3)c(C)nn2c1C	0.954
Cc1c(O)ccc(C(=O)CN2CCN(c3ccc(F)cc3)CC2)c1O	17.1
Cc1ccc(/C=C/C(=O)Nc2ccc(S(=O)(=O)Nc3ncccn3)cc2)cc1	27.4
CC(NC(=O)c1cc(=O)[nH]c2ccccc12)c1ccccc1 (centres unmarked)	12.7
CC(=O)Nc1ccc(N2C(=O)CSC2c2ccc(F)cc2)cc1 (centres unmarked)	7.98
CC(C)(C)c1[nH]c2ccccc2c1/C=N/O	14.9
C=CC(=O)OCCOCCOCCOCCOC(=O)C=C	9.38
CCOc1ccccc1Oc1coc2cc(O)ccc2c1=O	-1.15
Cc1ccccc1-c1cc(C(=O)NCC2CC2)n(CC2CC(c3cccnc3)=NO2)n1 (centres unmarked)	-2.27
CN(Cc1ccccc1)c1ncnc2c1cnn2-c1ccccc1	-5.15
Cc1onc(NC(=O)c2ccc([N+](=O)[O-])o2)c1Br	8.08
CCCCOC(=O)Cn1c(-c2ccccc2)nc2ccccc2c1=O	13.6
COC(=O)COc1ccsc1C(=O)OC	-3.78
O=C1N/C(=C\c2ccc(O)cc2)C(=O)c2ccccc21	7.6
COc1cccc(OCc2cc(C(=O)N(C)CCC3CCCCO3)no2)c1 (centres unmarked)	-0.0585
Cc1cc(S(=O)(=O)N2CCCCCC2)c(Cl)cc1Cl	20.3

SMILES	hERG current change (%, negative = inhibition) at 1uM [%]
CC(/C=N/Nc1nnc2c(n1)[nH]c1ccccc12)=C\c1ccco1	6.89
Cc1occc1C(=O)N1CCN(c2ncccn2)CC1	3.61
CCN(c1ccc(C)cc1)S(=O)(=O)c1nnc(NC(=O)c2ccco2)s1	16.2
O=C(c1ccc2c(c1)N(Cc1ccccc1)CCS2)N1CCCCC1	2.19
CCN(CC)CCNc1cc(C)nc2c1C(=O)C(=O)C=C2N1CCCCC1	5.93
O=C(CCS(=O)(=O)Cc1ccccc1F)NCCCN1CCCCC1	15.6
COc1cnc(-c2ccccc2)nc1Oc1ccc(C(C)(C)C)cc1	-4.65
O=C(CS(=O)CC(=O)N(CC(=O)NC1CCCC1)C1CCCC1)Nc1ccc(F)cc1 (centres unmarked)	9.19
Cc1cc(=O)n(CCO)c(O)c1C#N	1.48
CCOc1cc(/C=N/NC(=O)C2CC2)ccc1OC(C)C	17.1
Cc1cccc(-n2ccnc2CN2CCN(C(C)C)C(CCO)C2)c1 (centres unmarked)	4.89
COc1ccc2c(c1)SCC/C2=C\CN1C(=O)CCC1=O	5.87
CCOCC(O)CS(=O)(=O)c1ccccn1 (centres unmarked)	5.25
CCOC(=O)c1csc(NC(=O)c2ccc(OCC)cc2)n1	1.15
Fc1ccc(-c2ccc(NCCN3CCOCC3)nn2)cc1	-0.948
COc1ccc(CNC2CC(=O)N(C)C2=O)cc1 (centres unmarked)	18.7
O=C1Nc2ccc(S(=O)(=O)N(CCO)CCO)c3cccc1c23	14.5
COc1ccccc1C(=O)NCCC(=O)N1CCCC(C)C1 (centres unmarked)	9.16
CC1Cc2nc(SCC(=O)NCC3CCCO3)n(C)c(=O)c2S1 (centres unmarked)	0.397
C=CCNC(=S)NNC(=O)C(CC(C)C)CC(C)O (centres unmarked)	16.8
COC1CCN(Cc2c(C(=O)N3CCc4ccccc4C3)nc3ccc(Cl)cn23)CC1	-1.5
Cc1ccnc(NS(=O)(=O)c2ccc(NC(=O)c3cc(-c4ccc(Br)cc4)nc4ccccc34)cc2)n1	6.18
COc1cccc(NC(=O)c2ccc(NC(=O)C3CC(=O)OC34CCCCC4)cc2)c1 (centres unmarked)	11.8
